The campaign covered roughly 50,000 compounds. About 800 (1.6%) showed an effect of 50% or more. The list shows a part of the results.

This test deals with Bcl-2-like protein 10 (Homo sapiens) (UniProt Q9HD36). The test can be described thus: Phenotype converters, Bcl-B/TR3 peptide binding displacement, primary biochemical FP (AID 1240).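 Also: 0% = Bcl-B with tracer peptide and DMSO and 100% = tracer peptide lacking Bcl-B.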 As to conditions: GST-Bcl-B / FITC-TR3 peptide fluorescence polarization; stronger effect = higher value; compound at 3.75 mg/L. (Fluorescence polarisation rises when a labelled molecule tumbles more slowly, as on binding a larger partner.)
Chain of UniProt Q9HD36 (Q9HD36 whole entry, looked up): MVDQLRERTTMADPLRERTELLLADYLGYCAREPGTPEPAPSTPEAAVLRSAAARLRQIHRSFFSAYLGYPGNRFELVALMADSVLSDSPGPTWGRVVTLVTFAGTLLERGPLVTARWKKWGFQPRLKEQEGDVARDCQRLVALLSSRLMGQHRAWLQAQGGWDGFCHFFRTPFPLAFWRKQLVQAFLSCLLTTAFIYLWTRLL
Take `COc1ccccc1OCCNC(=O)Nc1ccc(Br)cc1`: the displacement is -11.2%.
The same measure for `O=c1cc(C(F)(F)C(F)F)oc2c1ccc1ccccc12`: 7.6%; for `Cc1ccc(OCC(=O)N2CCCCC2)c(Br)c1`: -7.8%.
In the case of `O=C(Nc1ccc(Cl)cn1)c1cccc(OCc2ccccc2)c1` it was 8.4%; in that of `N#CC1=C(N)n2c(s/c(=C\c3ccc4c(c3)OCO4)c2=O)=C(C#N)C1c1ccc2c(c1)OCO2` (stereo not given), -2.3%; in that of `Cc1cccc(C)c1OCCCCCCc1c(C)n[nH]c1C`, -6.7%.
The same measure for `O=C(c1cccnc1)N1CCN(C(=O)C(c2ccccc2)c2ccccc2)CC1`: -16.6%.
`O=C(O)c1ccc(-c2ccc(C=C3C(=O)c4ccccc4C3=O)o2)cc1Cl`: the displacement is 25.2%.
In the case of `NC1=NC(=O)/C(=C/c2ccccc2OCc2ccc([N+](=O)[O-])cc2)S1` it was 7.4%; in that of `CC1=NC(=S)C(C#N)C(c2ccccc2)=C1` (stereo not given), 6.3%.
Consider `COc1ccc(-n2c(C)nc(N)c2C(=O)c2ccccc2)cc1`, for which the displacement is -5.1%.
With `O=[N+]([O-])c1cccc(S(=O)(=O)Nc2ccc(Oc3ccccc3)cc2)c1`, the displacement is -10.7%.
For `CC(C)(C)c1ccccc1OCC(=O)Nc1cccc(Cl)c1`, the displacement worked out at 8.8%.
In the case of `C/C(=N\NC(=O)c1ccc2c(c1)OCO2)c1ccc(NC(=O)CCCC(=O)O)cc1` it was -3.2%; in that of `O=S(=O)(Nc1ccccn1)c1cc(Cl)c(Cl)cc1Cl`, -7.4%; in that of `COc1ccc(CCN=CC2=C(O)CC(c3ccccc3)CC2=O)cc1` (stereo not given), -5%.
In the case of `O=C(CSc1nc2ccc([N+](=O)[O-])cc2s1)Nc1ccc(Br)cc1`, the displacement is 49.9%.
Turning to `Cc1ccc2c(Cl)c(C(=O)Nc3nncs3)sc2c1`, the displacement is -6.2%.
Consider `CCOC(=O)c1[nH]cnc1C(=O)Nc1ccc([N+](=O)[O-])cc1`, for which the displacement amounted to 15%.
On to `O=C1c2ccc3c4c(ccc(c24)C(=O)N1CCOc1ccccc1)CC3`, for which the displacement came to 15.3%.
The same measure for `CCCCOC(=O)c1nc2nc(C)cc(C)n2n1`: -13.3%; for `O=C(NCCN1CCN(C(=O)c2ccccc2Cl)CC1)C(=O)Nc1ccccc1`: 9%; for `Cc1cccc2c1N(C(=O)Cc1ccccc1)C(C)(C)c1ssc(=S)c1-2`: -1.6%.
Turning to `CCOC(=O)c1ccc(N2NC(=O)/C(=C/c3ccccc3)C2=O)cc1`, the displacement was -7.6%.
The same measure for `CCOC(=O)c1sc(NC(=O)CCCOc2ccc(Cl)cc2C)c(C(N)=O)c1C`: 48%; for `CCCCOC(=O)c1ccc(NC(=O)C2CC(C)=C(C)CC2C(=O)O)cc1` (stereo not given): 10%; for `COc1ccc(Br)cc1C1CC(=O)Nc2c1ccc1ccccc21` (stereo not given): -14%.
Consider `O=C(CSc1nc2ccccc2o1)Nc1ccccc1Oc1ccccc1`, for which the displacement was -20.1%.
In the case of `COc1ccc(NC(=O)Cc2ccc(Br)cc2)c(OC)c1` it was 0.6%; in that of `COc1ccc(OCCSc2nc3ccccc3c(=O)[nH]2)cc1`, 13.2%.
In the case of `Cc1ccc(N2NC(=O)/C(=C/c3ccc(-c4ccc(S(N)(=O)=O)cc4)o3)C2=O)cc1` it was 5.6%; in that of `Cc1cc(C)nc(/N=C(/N)N2CCCc3ccccc32)n1`, 3.7%; in that of `Cc1ccc(C(=O)Nc2ccccc2C(=O)O)cc1N`, 2.7%.
For `CN1C(=O)NC(=O)/C(=C/c2ccc(O)c(Br)c2)C1=O`, the displacement was -5.5%.
The same measure for `O=C1/C(=C\c2ccc(O)cc2O)SC(=S)N1c1ccccc1`: 12.1%; for `O=C(NC(=S)Nc1ccccc1O)c1ccccc1`: 7.7%.
As to `O=C(/C=C/c1cccs1)NCc1ccc2c(c1)OCO2`, the displacement was -15.8%.
The same measure for `O=[N+]([O-])c1ccc(-c2ccc(/C=C/c3ccc4ccccc4n3)o2)cc1`: 14.8%; for `O=C(N/N=C/c1c(Br)cc(Br)c(O)c1Br)c1ccccc1[N+](=O)[O-]`: -2.6%; for `COCCN1C(=O)C(=O)/C(=C(/O)c2ccccc2)C1c1ccc(OC)c(OC)c1` (stereo not given): 2.3%.
Take `Cc1ccc(N2C(=O)NC(=O)/C(=C\c3ccc(-c4ccc(C)c([N+](=O)[O-])c4)o3)C2=O)cc1`: the displacement came to 151%.
In the case of `COc1ccc(N(CC(=O)N/N=C/c2cc(Br)c(C)o2)S(=O)(=O)c2ccc(NC(C)=O)cc2)cc1`, the displacement was -40.2%.
In the case of `O=C(N/N=C/c1cc2c(cc1Cl)OCO2)/C(=C\c1ccc2c(c1)OCO2)NC(=O)c1ccccc1` it was 2.1%; in that of `O=C(NCC1CCCO1)c1ccc(F)c2ccccc12` (stereo not given), -13.5%; in that of `COc1ccc(-c2noc(COc3ccccc3)n2)cc1`, 0%.
The same measure for `C/C(=N\OCC(=O)N=Nc1c(O)n(CN2CCCC2)c2ccccc12)c1ccc(C)cc1`: 0.8%.
In the case of `COC(=O)C1=C(C)N(Cc2cccnc2)C(=O)/C1=C\c1cccc(OC)c1O` it was -2%.
As for `O=C(NCCNc1ccc(Cl)cc1[N+](=O)[O-])c1cccnc1`, the displacement was -3.2%.
The same measure for `COc1cc(/C=C2\C(=O)NN(c3ccccc3)C2=O)ccc1OCCOc1ccc(C)cc1`: 9%.
The same measure for `COc1ccc(C(=O)n2c(C)nc3ccccc32)cc1[N+](=O)[O-]`: 15%.
For `CCOc1ccc(NC(=S)NC(=O)c2ccc(Br)cc2)c([N+](=O)[O-])c1`, the displacement amounted to 4.5%.
For the compound `CCCn1c2ccccc2c2cc(C(C)=O)ccc21`, the displacement is -2.2%.
For `CC(C)(C)c1nnc(NC(=O)CSc2ncn[nH]2)s1`, the displacement is -1%.
In the case of `COc1ccc(C2=Cc3cc(OC)c(OC)cc3S(=O)(=O)O2)cc1OC` it was 4.1%; in that of `COc1ccccc1NC(=O)C(=O)NNC(=O)c1cccs1`, -9.5%; in that of `CCN(CC)S(=O)(=O)c1ccc(NC(=O)c2cccs2)cc1`, -6.9%.
As to `COc1ccc2c(c1OC)C(=O)N(c1nc(-c3ccccc3)c(C(=O)c3ccccc3)s1)C2=O`, the displacement worked out at 7.5%.
Take `CC1SC(c2ccccc2)N(CCc2ccccc2)C1=O` (stereo not given): the displacement was -14.2%.
The same measure for `CCCCCCCNC1CC(=O)N(c2cccc(Cl)c2)C1=O` (stereo not given): -25.2%.
Turning to `Cc1cc(C)c(C)c(OCCCCN2CCC(C)CC2)c1`, the displacement is -11%.
In the case of `O=C(c1cccc([N+](=O)[O-])c1)c1ccc2c(c1)C(=O)N(c1cccc(-c3nc4ccccc4o3)c1)C2=O` it was 10.2%; in that of `COc1cc([N+](=O)[O-])ccc1N/C(N)=N\c1nc(C)cc(C)n1`, -7.4%.
The same measure for `CCOC(=O)c1c(NC(=O)c2ccccc2OC)sc2c1CCCCC2`: 3.8%.
As to `Cc1cc(C)c(C(=O)/C=C/c2ccncc2)c(=O)[nH]1`, the displacement is -3.1%.
On to `C/C(=N\NC(=O)c1cc(C)[nH]n1)c1ccc(Cl)cc1`, for which the displacement is -3.3%.
As to `CC1(C)CC(=O)C=C(Nc2ccc(F)cc2F)C1`, the displacement is -11.1%.
`NNc1nc(N2CCCCC2)nc(N2CCCCC2)n1`: the displacement came to 8.4%.
`Fc1ccc(C2=NN(c3ccccc3)C(c3ccco3)C2)cc1` (stereo not given): the displacement was determined as 3.2%.
As to `CCCN1C(=O)c2ccccc2NC1c1ccc(OC)c(COc2ccc([N+](=O)[O-])c(C)c2)c1` (stereo not given), the displacement was 2.1%.
With `Cc1sc(NC(=O)c2ccc(Cl)cc2Cl)nc1C12CC3CC(CC(C3)C1)C2`, the displacement is -6.7%.
`COc1ccc(OC)c(S(=O)(=O)N2CCCCC2)c1`: the displacement is -0.9%.
In the case of `CCc1ccc(NC(=O)COc2ccc(C)cc2C)cc1`, the displacement is -4%.
For the compound `Cc1ccccc1C(=O)Nc1sc2c(c1C(=O)NCc1ccco1)CCC2`, the displacement is -11.7%.
The same measure for `Cc1ccc(CC2CC(=O)N(c3cccc(C(F)(F)F)c3)C2=O)cc1` (stereo not given): 8.3%; for `Cc1cc(NC(=O)c2ccc(-c3ccccc3)cc2)ccc1NC(=O)c1ccco1`: -8.5%; for `O=C(NC(Nc1ccccn1)C(Cl)(Cl)Cl)c1ccccc1` (stereo not given): -2.7%.
In the case of `Cc1ccc2c(Cl)c(C(=O)Nc3cc(Cl)ccc3C)sc2c1` it was -6.7%; in that of `CC(C)(C)c1ccc(O)c(N=Cc2c(O)ccc3cc([N+](=O)[O-])ccc23)c1`, -3.5%.
With `CCOC(=O)CCc1c(C)nc2c(C)c(-c3ccc(C)cc3)[nH]n2c1=O`, the displacement was found to be 9.9%.
The same measure for `Cc1ccc(C23CC4CC(CC(C(=O)NC5CCCCC5)(C4)C2)C3)cc1`: 1.4%; for `O=C(Nc1ccc(F)c([N+](=O)[O-])c1)c1cccc(Cl)c1Cl`: 13.4%; for `CCc1cccc(C)c1NC(=O)c1c(Cl)ccc(Cl)c1OC`: -10.9%.
As to `O=C(Cn1cnc([N+](=O)[O-])n1)N1CCN(Cc2ccccc2)CC1`, the displacement is -7.5%.
As for `O=C1NCCCc2nc(Nc3ccccc3)sc21`, the displacement is 1%.
In the case of `COc1ccccc1-c1nc2ccccc2nc1-c1ccccc1OC` it was -5.7%.
On to `CCCOc1ccc(N2C(=O)CC(N3CCN(C)CC3)C2=O)cc1` (stereo not given), for which the displacement was found to be 27.2%.
The same measure for `CCOC(=O)C1=C(C)N=c2s/c(=C\c3cc(OC)c(O)c(OC)c3)c(=O)n2C1c1ccccc1` (stereo not given): -29.2%; for `CCOc1cccc(C=NN2CCN(Cc3ccc(C)cc3C)CC2)c1O`: 7.9%.
Regarding `O=C(Nc1ccc([N+](=O)[O-])cc1Cl)c1cc2ccccc2o1`, the displacement turned out to be 8.5%.
The same measure for `COc1ccccc1NC(=O)/C=C/c1ccc(C)o1`: 17.4%; for `O=C(Nc1ccccc1C(F)(F)F)c1cccc(OCc2ccccc2)c1`: -1.9%.
The same measure for `O=C(c1cccc(F)c1)N1CCN(c2ccc(Cl)cc2)CC1`: 0.6%; for `Cc1ccc(-c2csc(NC(=O)C3C4CCC(C4)C3C(=O)O)n2)cc1C` (stereo not given): -9.6%.
Consider `CCOc1cc(OCC)cc(C(=O)Nc2ccc(F)cc2)c1`, for which the displacement stood at 13.3%.
As to `O=C(NC(=S)Nc1ccccc1O)c1ccc(Br)cc1`, the displacement came out at 10%.
On to `CC(=O)C1=C(O)C(=O)N(CC2CCCO2)C1c1ccc([N+](=O)[O-])cc1` (stereo not given), for which the displacement came out at 8.7%.
The same measure for `Cc1cccc(N(CC(O)CN2C(=O)NC(C)(C)C2=O)S(=O)(=O)c2ccccc2)c1` (stereo not given): -3.5%; for `COC(=O)c1cc(Br)cc(NC(C)=O)c1`: 7.8%.
The same measure for `O=C(NC(Nc1ccccc1Cl)C(=O)c1ccccc1)c1ccco1` (stereo not given): -8.7%; for `Cc1ccc(Nc2nc(-c3ccccc3)cs2)cc1`: 5.8%.
Regarding `COc1cc(C(=O)N/C(N)=N/c2nc3ccccc3o2)cc(OC)c1OC`, the displacement turned out to be 22.1%.
In the case of `Cc1cccc(C)c1OCC(=O)N/N=C/c1ccccc1[N+](=O)[O-]` it was -0.9%.
The same measure for `O=C(NCCN1CCCCC1)c1ccc(/C=N/O)nc1`: -2.3%; for `Cc1ccccc1C(=O)NN1C(=O)CSC1=S`: 9.8%.
In the case of `CSc1ccc(/C=N/NC(=O)c2cc(C)[nH]n2)cc1` it was 3.8%; in that of `O=S(=O)(Nc1ccc2oc3c(c2c1)CCCC3)c1ccccc1`, -5.5%; in that of `COc1cccc(C(=O)Nc2cc3nn(-c4ccc(C)cc4)nc3cc2C)c1`, -13.3%.
For the compound `COc1ccc(C2NCCc3c2[nH]c2ccccc32)cc1OC` (stereo not given), the displacement came to 8.4%.
The same measure for `O=C(Nc1cccc(I)c1)C(c1ccccc1)c1ccccc1`: 7.4%; for `CC(C)(C)c1ccc(C(=O)Nc2ccc(NC(=O)COc3ccccc3[N+](=O)[O-])cc2)cc1`: 0%.
